# Laboratory results from the supplement of paper PMC8728848.
# Some of the results follow.
# Experiments:
# Experiment in all cases: glycan array binding signal (z-score within array); higher = stronger binding
# Settings in all cases: glycan notation: IUPAC condensed, linker removed
# [1] = biological target: Neu5Ac(a2-3)Gal(b1-4)[Fuc(a1-3)]GlcNAc(b1-6)[Gal(b1-3)]GalNAc
# Procedure, shortened: (§1)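 The binding signal is a Z-score computed within each array. Data were drawn from 3228 arrays in the Consortium for Functional Glycomics database, restricted to those with a known protein sequence. Scores were averaged over arrays of the same protein sequence at different concentrations or buffers, and over linkers, and negative values can be taken as non-binding.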
# [2] = biological target: Neu5Ac(a2-3)Gal(b1-4)[Fuc(a1-3)]GlcNAc6S
# Procedure, shortened: as §1
# [3] = biological target: Neu5Ac(a2-3)Gal6S(b1-4)GlcNAc
# Procedure, shortened: as §1
# [4] = biological target: Neu5Ac(a2-3)Gal6S(b1-4)[Fuc(a1-3)]GlcNAc
# Procedure, shortened: as §1
# Neu5Ac(a2-3)GalNAc = biological target: Neu5Ac(a2-3)GalNAc
# Procedure, shortened: as §1
# [5] = biological target: Neu5Ac(a2-3)GalNAc(b1-4)GlcNAc
# Procedure, shortened: as §1
# [6] = biological target: Neu5Ac(a2-3)[GalNAc(b1-4)]Gal(b1-4)Glc
# Procedure, shortened: as §1
# [7] = biological target: Neu5Ac(a2-3)[GalNAc(b1-4)]Gal(b1-4)GlcNAc
# Procedure, shortened: as §1
# [8] = biological target: Neu5Ac(a2-3)[GalNAc(b1-4)]Gal(b1-4)GlcNAc(b1-3)GalNAc
# Procedure, shortened: as §1
# [9] = biological target: Neu5Ac(a2-3)[Neu5Ac(a2-6)]GalNAc
# Procedure, shortened: as §1
# Neu5Ac(a2-6)Gal = biological target: Neu5Ac(a2-6)Gal
# Procedure, shortened: as §1
# [10] = biological target: Neu5Ac(a2-6)Gal(b1-3)GlcNAc(b1-3)[Gal(b1-4)GlcNAc(b1-6)]Gal(b1-4)Glc
# Procedure, shortened: as §1
# Neu5Ac(a2-6)Gal(b1-4)Glc = biological target: Neu5Ac(a2-6)Gal(b1-4)Glc
# Procedure, shortened: as §1
# [11] = biological target: Neu5Ac(a2-6)Gal(b1-4)GlcNAc
# Procedure, shortened: as §1
# [12] = biological target: Neu5Ac(a2-6)Gal(b1-4)GlcNAc(b1-2)Man(a1-3)Man(b1-4)GlcNAc(b1-4)GlcNAc
# Procedure, shortened: as §1
# [13] = biological target: Neu5Ac(a2-6)Gal(b1-4)GlcNAc(b1-2)Man(a1-3)[Gal(b1-4)GlcNAc(b1-2)Man(a1-6)]Man(b1-4)GlcNAc(b1-4)GlcNAc
# Procedure, shortened: as §1
# [14] = biological target: Neu5Ac(a2-6)Gal(b1-4)GlcNAc(b1-2)Man(a1-3)[GlcNAc(b1-2)Man(a1-6)]Man(b1-4)GlcNAc(b1-4)GlcNAc
# Procedure, shortened: as §1
# [15] = biological target: Neu5Ac(a2-6)Gal(b1-4)GlcNAc(b1-2)Man(a1-3)[GlcNAc(b1-2)Man(b1-4)GlcNAc(b1-2)Man(a1-6)]Man(b1-4)GlcNAc(b1-4)GlcNAc
# Procedure, shortened: as §1
# [16] = biological target: Neu5Ac(a2-6)Gal(b1-4)GlcNAc(b1-2)Man(a1-3)[Man(a1-6)]Man(b1-4)GlcNAc(b1-4)GlcNAc
# Procedure, shortened: as §1
# [17] = biological target: Neu5Ac(a2-6)Gal(b1-4)GlcNAc(b1-2)Man(a1-3)[Neu5Ac(a2-6)Gal(b1-4)GlcNAc(b1-2)Man(a1-6)]Man(b1-4)GlcNAc(b1-4)GlcNAc
# Procedure, shortened: as §1
# [18] = biological target: Neu5Ac(a2-6)Gal(b1-4)GlcNAc(b1-2)Man(a1-3)[Neu5Ac(a2-6)Gal(b1-4)GlcNAc(b1-2)Man(a1-6)]Man(b1-4)GlcNAc(b1-4)[Fuc(a1-6)]GlcNAc
# Procedure, shortened: as §1
# [19] = biological target: Neu5Ac(a2-6)Gal(b1-4)GlcNAc(b1-2)Man(a1-6)Man(b1-4)GlcNAc(b1-4)GlcNAc
# Procedure, shortened: as §1
# [20] = biological target: Neu5Ac(a2-6)Gal(b1-4)GlcNAc(b1-2)Man(a1-6)[Gal(b1-4)GlcNAc(b1-2)Man(a1-3)]Man(b1-4)GlcNAc(b1-4)GlcNAc
# Procedure, shortened: as §1
# [21] = biological target: Neu5Ac(a2-6)Gal(b1-4)GlcNAc(b1-2)Man(a1-6)[GlcNAc(b1-2)Man(a1-3)]Man(b1-4)GlcNAc(b1-4)GlcNAc
# Procedure, shortened: as §1
# [22] = biological target: Neu5Ac(a2-6)Gal(b1-4)GlcNAc(b1-2)Man(a1-6)[Man(a1-3)]Man(b1-4)GlcNAc(b1-4)GlcNAc
# Procedure, shortened: as §1
# [23] = biological target: Neu5Ac(a2-6)Gal(b1-4)GlcNAc(b1-3)Gal(b1-3)GlcNAc
# Procedure, shortened: as §1
# [24] = biological target: Neu5Ac(a2-6)Gal(b1-4)GlcNAc(b1-3)Gal(b1-4)GlcNAc
# Procedure, shortened: as §1
# [25] = biological target: Neu5Ac(a2-6)Gal(b1-4)GlcNAc(b1-3)Gal(b1-4)GlcNAc(b1-3)Gal(b1-4)GlcNAc
# Procedure, shortened: as §1
# [26] = biological target: Neu5Ac(a2-6)Gal(b1-4)GlcNAc(b1-3)Gal(b1-4)[Fuc(a1-3)]GlcNAc(b1-3)Gal(b1-4)[Fuc(a1-3)]GlcNAc
# Procedure, shortened: as §1
# [27] = biological target: Neu5Ac(a2-6)Gal(b1-4)GlcNAc(b1-3)GalNAc
# Procedure, shortened: as §1
# [28] = biological target: Neu5Ac(a2-6)Gal(b1-4)GlcNAc(b1-3)[Neu5Ac(a2-6)Gal(b1-4)GlcNAc(b1-6)]GalNAc
# Procedure, shortened: as §1
binder,measurement,setting,value
"StcE (Escherichia coli), O82882.2 (protein) ADNNSAIYFNTSQPINDLQGSLAAEVKFAQSQILPAHPKEGDSQPHLTSLRKSLLLVRPVKADDKTPVQVEARDDNNKILGTLTLYPPSSLPDTIYHLDGVPEGGIDFTPHNGTKKIINTVAEVNKLSDASGSSIHSHLTNNALVEIHTANGRWVRDIYLPQGPDLEGKMVRFVSSAGYSSTVFYGDRKVTLSVGNTLLFKYVNGQWFRSGELENNRITYAQHIWSAELPAHWIVPGLNLVIKQGNLSGRLNDIKIGAPGELLLHTIDIGMLTTPRDRFDFAKDKEAHREYFQTIPVSRMIVNNYAPLHLKEVMLPTGELLTDMDPGNGGWHSGTMRQRIGKELVSHGIDNANYGLNSTAGLGENSHPYVVAQLAAHNSRGNYANGIQVHGGSGGGGIVTLDSTLGNEFSHEVGHNYGLGHYVDGFKGSVHRSAENNNSTWGWDGDKKRFIPNFYPSQTNEKSCLNNQCQEPFDGHKFGFDAMAGGSPFSAANRFTMYTPNSSAIIQRFFENKAVFDSRSSTGFSKWNADTQEMEPYEHTIDRAEQITASVNELSESKMAELMAEYAVVKVHMWNGNWTRNIYIPTASADNRGSILTINHEAGYNSYLFINGDEKVVSQGYKKSFVSDGQFWKERDVVDTREARKPEQFGVPVTTLVGYYDPEGTLSSYIYPAMYGAYGFTYSDDSQNLSDNDCQLQVDTKEGQLRFRLANHRANNTVMNKFHINVPTESQPTQATLVCNNKILDTKSLTPAPEGLTYTVNGQALPAKENEGCIVSVNSGKRYCLPVGQRSGYSLPDWIVGQEVYVDSGAKAKVLLSDWDNLSYNRIGEFVGNVNPADMKKVKAWNGQYLDFSKPRSMRVVYK",glycan array binding signal (z-score),[1],-0.112
same,glycan array binding signal (z-score),[2],2.84
same,glycan array binding signal (z-score),[3],-0.098
same,glycan array binding signal (z-score),[4],-0.148
same,glycan array binding signal (z-score),Neu5Ac(a2-3)GalNAc,-0.499
same,glycan array binding signal (z-score),[5],-0.153
same,glycan array binding signal (z-score),[6],-0.133
same,glycan array binding signal (z-score),[7],-0.496
same,glycan array binding signal (z-score),[8],-0.116
same,glycan array binding signal (z-score),[9],-0.349
same,glycan array binding signal (z-score),Neu5Ac(a2-6)Gal,1.99
same,glycan array binding signal (z-score),[10],-0.132
same,glycan array binding signal (z-score),Neu5Ac(a2-6)Gal(b1-4)Glc,-0.084
same,glycan array binding signal (z-score),[11],-0.194
same,glycan array binding signal (z-score),[12],-0.095
same,glycan array binding signal (z-score),[13],-0.037
same,glycan array binding signal (z-score),[14],-0.148
same,glycan array binding signal (z-score),[15],-0.098
same,glycan array binding signal (z-score),[16],-0.152
same,glycan array binding signal (z-score),[17],-0.132
same,glycan array binding signal (z-score),[18],-0.176
same,glycan array binding signal (z-score),[19],-0.148
same,glycan array binding signal (z-score),[20],-0.133
same,glycan array binding signal (z-score),[21],-0.167
same,glycan array binding signal (z-score),[22],-0.149
same,glycan array binding signal (z-score),[23],-0.146
same,glycan array binding signal (z-score),[24],-0.16
same,glycan array binding signal (z-score),[25],-0.152
same,glycan array binding signal (z-score),[26],0.622
same,glycan array binding signal (z-score),[27],2.78
same,glycan array binding signal (z-score),[28],0.038
